Laboratory results as given in the supplement of paper PMC4604168 (melanoma cell lines).
Some of the results follow. Most values come without repeats; read them as rough.

tested on: UACC257; experiment: cell count relative to DMSO control; melanoma cells; higher = more viable cells; conditions: library dose: low library concentration; 72 h
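Note: cell number obtained by counting DAPI-stained nuclei in high-throughput microscope images with image analysis software, screen run in 1,536-well plates.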

| Compound | cell count [%] |
| --- | --- |
| Cc1cn(-c2cc(NC(=O)c3ccc(C)c(Nc4nccc(-c5cccnc5)n4)c3)cc(C(F)(F)F)c2)cn1 [nilotinib] + NCC(=O)Nc1ccc(-n2nc(C(F)(F)F)cc2-c2ccc3c(ccc4ccccc43)c2)cc1 [OSU03012] (first compound 0.2 µM, partner dose 1 µM) | 84.1 |
| Cc1cn(-c2cc(NC(=O)c3ccc(C)c(Nc4nccc(-c5cccnc5)n4)c3)cc(C(F)(F)F)c2)cn1 [nilotinib] + CO[C@@H]1[C@H](N(C)C(=O)c2ccccc2)C[C@H]2O[C@]1(C)n1c3ccccc3c3c4c(c5c6ccccc6n2c5c31)C(=O)NC4 [Midostaurin] (first compound 0.2 µM, partner dose 0.08 µM) | 91.8 |
| Cc1cc(Nc2cc(N3CCN(C)CC3)nc(/C=C/c3ccccc3)n2)n[nH]1 + COC(=O)c1sccc1S(=O)(=O)Nc1ccc(Nc2ccccc2)cc1OC [GSK0660] (first compound 0.04 µM, partner dose 1 µM) | 88.2 |
| COc1ccc(C2=N[C@@H](c3ccc(Cl)cc3)[C@@H](c3ccc(Cl)cc3)N2C(=O)N2CCNC(=O)C2)c(OC(C)C)c1 [Nutlin-3] + CC(C)CCN1c2nc(Nc3cc(F)c(O)c(F)c3)ncc2N(C)C(=O)C1C [BID1870] (first compound 0.1 µM, partner dose 0.2 µM) | 101 |
| COc1ccc(C2=N[C@@H](c3ccc(Cl)cc3)[C@@H](c3ccc(Cl)cc3)N2C(=O)N2CCNC(=O)C2)c(OC(C)C)c1 [Nutlin-3] + COc1ccc2c(c1)CCC1C2CCC2(C)C(NCCCCCCN3C(=O)C=CC3=O)CCC12 [U73122] (first compound 0.1 µM, partner dose 0.4 µM) | 96.6 |
| Cc1cc(Nc2cc(N3CCN(C)CC3)nc(/C=C/c3ccccc3)n2)n[nH]1 + Oc1nc(-c2ccc(C(F)(F)F)cc2)nc2c1CSCC2 [XAV939] (first compound 0.04 µM, partner dose 2 µM) | 89.6 |
| COc1ccc(C2=N[C@@H](c3ccc(Cl)cc3)[C@@H](c3ccc(Cl)cc3)N2C(=O)N2CCNC(=O)C2)c(OC(C)C)c1 [Nutlin-3] + CCc1ccc(CCOc2ccc(CC3SC(=O)NC3=O)cc2)nc1 [pioglitazone] (first compound 0.1 µM, partner dose 2 µM) | 98.7 |
| COc1ccc(C2=N[C@@H](c3ccc(Cl)cc3)[C@@H](c3ccc(Cl)cc3)N2C(=O)N2CCNC(=O)C2)c(OC(C)C)c1 [Nutlin-3] + O=C(CCCCCCC(=O)Nc1ccccc1)NO [vorinostat] (first compound 0.1 µM, partner dose 0.08 µM) | 84.6 |
| Cn1c(=O)n(-c2ccc(C(C)(C)C#N)cc2)c2c3cc(-c4cnc5ccccc5c4)ccc3ncc21 + Cn1cncc1[C@@](N)(c1ccc(Cl)cc1)c1ccc2c(c1)c(-c1cccc(Cl)c1)cc(=O)n2C [tipifarnib] (first compound 0.004 µM, partner dose 0.01 µM) | 55.9 |

tested on: UACC62; experiment: as above; conditions: library dose: low library concentration; 72 h

| Compound | cell count [%] |
| --- | --- |
| COc1ccc(C2=N[C@@H](c3ccc(Cl)cc3)[C@@H](c3ccc(Cl)cc3)N2C(=O)N2CCNC(=O)C2)c(OC(C)C)c1 [Nutlin-3] + c1cc(-c2cnn3cc(-c4ccc(OCCN5CCCCC5)cc4)cnc23)ccn1 [Dorsomorphin] (first compound 0.1 µM, partner dose 0.4 µM) | 102 |
| Cn1c(=O)n(-c2ccc(C(C)(C)C#N)cc2)c2c3cc(-c4cnc5ccccc5c4)ccc3ncc21 + COc1cc(N2CCC(N3CCN(C)CC3)CC2)ccc1Nc1ncc(Cl)c(Nc2ccccc2S(=O)(=O)C(C)C)n1 [NVP-TAE684] (first compound 0.004 µM, partner dose 0.08 µM) | 74.7 |
| COc1ccc(C2=N[C@@H](c3ccc(Cl)cc3)[C@@H](c3ccc(Cl)cc3)N2C(=O)N2CCNC(=O)C2)c(OC(C)C)c1 [Nutlin-3] + COc1cc2c(Oc3ccc4[nH]c(C)cc4c3F)ncnc2cc1OCCCN1CCCC1 [cediranib] (first compound 0.1 µM, partner dose 0.4 µM) | 85.1 |
| CC(C)C[C@H](NC(=O)[C@H](Cc1ccccc1)NC(=O)c1cnccn1)B(O)O [Bortezomib] + NC(=O)Nc1cc(-c2cccc(F)c2)sc1C(=O)N[C@H]1CCCNC1 [AZD7762] (first compound 0.001 µM, partner dose 0.02 µM) | 101 |
| CC(C)C[C@H](NC(=O)[C@H](Cc1ccccc1)NC(=O)c1cnccn1)B(O)O [Bortezomib] + O=C(O)c1ccc(-c2c[nH]c3ncc(-c4ccccc4)cc23)cc1C1CCCC1 [GSK650394] (first compound 0.001 µM, partner dose 0.16 µM) | 83.1 |
| COc1ccc(C2=N[C@@H](c3ccc(Cl)cc3)[C@@H](c3ccc(Cl)cc3)N2C(=O)N2CCNC(=O)C2)c(OC(C)C)c1 [Nutlin-3] + O=C1NC(=O)/C(=C/c2ccc(-c3ccc(F)cc3O)o2)S1 [AS252424] (first compound 0.1 µM, partner dose 1 µM) | 94.1 |
| Cn1c(=O)n(-c2ccc(C(C)(C)C#N)cc2)c2c3cc(-c4cnc5ccccc5c4)ccc3ncc21 + NCC(=O)Nc1ccc(-n2nc(C(F)(F)F)cc2-c2ccc3c(ccc4ccccc43)c2)cc1 [OSU03012] (first compound 0.004 µM, partner dose 1 µM) | 57.6 |
| CC(C)C[C@H](NC(=O)[C@H](Cc1ccccc1)NC(=O)c1cnccn1)B(O)O [Bortezomib] + O=C(Nc1ccccc1)c1cc([N+](=O)[O-])ccc1Cl [GW9662] (first compound 0.001 µM, partner dose 2 µM) | 65.9 |
| COc1ccc(C2=N[C@@H](c3ccc(Cl)cc3)[C@@H](c3ccc(Cl)cc3)N2C(=O)N2CCNC(=O)C2)c(OC(C)C)c1 [Nutlin-3] + Cn1cc(/C=C2\C(=O)Nc3cccnc32)c2ccccc21 [GW441756] (first compound 0.1 µM, partner dose 0.4 µM) | 87.7 |
| Cn1c(=O)n(-c2ccc(C(C)(C)C#N)cc2)c2c3cc(-c4cnc5ccccc5c4)ccc3ncc21 + OCCn1cc(-c2cnc3nnn(Cc4ccc5ncccc5c4)c3n2)cn1 [PF04217903] (first compound 0.004 µM, partner dose 1 µM) | 90.6 |
| Cc1cn(-c2cc(NC(=O)c3ccc(C)c(Nc4nccc(-c5cccnc5)n4)c3)cc(C(F)(F)F)c2)cn1 [nilotinib] + Oc1nc(-c2ccc(C(F)(F)F)cc2)nc2c1CSCC2 [XAV939] (first compound 0.2 µM, partner dose 2 µM) | 101 |
| COc1ccc(C2=N[C@@H](c3ccc(Cl)cc3)[C@@H](c3ccc(Cl)cc3)N2C(=O)N2CCNC(=O)C2)c(OC(C)C)c1 [Nutlin-3] + CO[C@@H]1[C@H](N(C)C(=O)c2ccccc2)C[C@H]2O[C@]1(C)n1c3ccccc3c3c4c(c5c6ccccc6n2c5c31)C(=O)NC4 [Midostaurin] (first compound 0.1 µM, partner dose 0.08 µM) | 82.8 |
| COc1ccc(C2=N[C@@H](c3ccc(Cl)cc3)[C@@H](c3ccc(Cl)cc3)N2C(=O)N2CCNC(=O)C2)c(OC(C)C)c1 [Nutlin-3] + C[C@@H]1CCN(C(=O)CC#N)C[C@@H]1N(C)c1ncnc2[nH]ccc12 [CP690550] (first compound 0.1 µM, partner dose 1 µM) | 88.6 |
| Cc1cn(-c2cc(NC(=O)c3ccc(C)c(Nc4nccc(-c5cccnc5)n4)c3)cc(C(F)(F)F)c2)cn1 [nilotinib] + Cn1cncc1[C@@](N)(c1ccc(Cl)cc1)c1ccc2c(c1)c(-c1cccc(Cl)c1)cc(=O)n2C [tipifarnib] (first compound 0.2 µM, partner dose 0.01 µM) | 83.3 |
| CC(C)C[C@H](NC(=O)[C@H](Cc1ccccc1)NC(=O)c1cnccn1)B(O)O [Bortezomib] + CC(C)CCN1c2nc(Nc3cc(F)c(O)c(F)c3)ncc2N(C)C(=O)C1C [BID1870] (first compound 0.001 µM, partner dose 0.2 µM) | 62.7 |
| Cc1cn(-c2cc(NC(=O)c3ccc(C)c(Nc4nccc(-c5cccnc5)n4)c3)cc(C(F)(F)F)c2)cn1 [nilotinib] + O=C(CCCCCCC(=O)Nc1ccccc1)NO [vorinostat] (first compound 0.2 µM, partner dose 0.08 µM) | 87.9 |
| Cn1c(=O)n(-c2ccc(C(C)(C)C#N)cc2)c2c3cc(-c4cnc5ccccc5c4)ccc3ncc21 + O=C1NC(=O)/C(=C/c2ccc(-c3ccc(F)cc3O)o2)S1 [AS252424] (first compound 0.004 µM, partner dose 1 µM) | 87.9 |
| CC(C)C[C@H](NC(=O)[C@H](Cc1ccccc1)NC(=O)c1cnccn1)B(O)O [Bortezomib] + COc1ccc(-c2ccc3c(N4CCOCC4)nc(N4C[C@@H](C)O[C@@H](C)C4)nc3n2)cc1CO [KU0063794] (first compound 0.001 µM, partner dose 0.02 µM) | 69 |
| Cc1cc(Nc2cc(N3CCN(C)CC3)nc(/C=C/c3ccccc3)n2)n[nH]1 + CC(C)(C)c1cnc(CSc2cnc(NC(=O)C3CCNCC3)s2)o1 [SNS-032] (first compound 0.04 µM, partner dose 0.01 µM) | 72.9 |
| Cc1cc(Nc2cc(N3CCN(C)CC3)nc(/C=C/c3ccccc3)n2)n[nH]1 + O=C(O)c1ccc(-c2c[nH]c3ncc(-c4ccccc4)cc23)cc1C1CCCC1 [GSK650394] (first compound 0.04 µM, partner dose 0.16 µM) | 72.5 |
